Test results as given in the supplement of paper PMC3722116.
Growth of fresh clinical P. falciparum isolates by hypoxanthine uptake over 42 h; for most isolates 1.6-1,647 nM mefloquine, 0.044-87 nM artesunate, 10-10,256 nM chloroquine, 2.4-236 nM lumefantrine. EC50, lower = more sensitive; slope from the same fit, higher = steeper. No active / inactive call. Fits with a coefficient of variation above 100% are not listed here; 15-28% of fits exceed 15%. Isolates are numbered anew.

Legend:
chloroquine [1] = compound: T1, CCN(CC)CCCC(C)Nc1ccnc2cc(Cl)ccc12 [chloroquine]; assay: slope of the dose-response curve (dimensionless); higher = steeper concentration-effect curve
Experimental: (§1)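 Hypoxanthine uptake by fresh isolates, duplicate serial dilutions, 24 h of drug plus 18 h after the label; sigmoid fit per isolate.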

lumefantrine [2] = compound: T2, CCCCN(CCCC)CC(O)c1cc(Cl)cc2c1-c1ccc(Cl)cc1/C2=C/c1ccc(Cl)cc1 [lumefantrine]; assay: as above
Experimental: as §1

artesunate [3] = compound: T3, C[C@H]1[C@H](OC(=O)CCC(=O)O)O[C@@H]2O[C@@]3(C)CC[C@H]4[C@H](C)CC[C@@H]1[C@@]24OO3 [artesunate]; assay: as above
Experimental: as §1

mefloquine [4] = compound: T4, OC(c1cc(C(F)(F)F)nc2c(C(F)(F)F)cccc12)C1CCCCN1 [mefloquine]; assay: as above
Experimental: as §1

chloroquine [5] = compound: T1, chloroquine
Experimental: as §1

lumefantrine [6] = compound: T2, lumefantrine
Experimental: as §1

artesunate [7] = compound: T3, artesunate
Experimental: as §1

mefloquine [8] = compound: T4, mefloquine
Experimental: as §1

Row | Test System | slope (chloroquine [1]) | slope (lumefantrine [2]) | slope (artesunate [3]) | slope (mefloquine [4]) | EC50 of parasite growth (chloroquine [5]) | EC50 of parasite growth (lumefantrine [6]) | EC50 of parasite growth (artesunate [7]) | EC50 of parasite growth (mefloquine [8])
1 | Plasmodium falciparum isolate 365 (pfmdr1 allele: 86N, 1042N, pfmdr1 copies: 2) | 5.75 | 2.64 | 4.97 | 2.86 | 0.0897 µg/mL | 0.0267 µg/mL | 0.000321 µg/mL | 0.0334 µg/mL
2 | Plasmodium falciparum isolate 29 (pfmdr1 allele: 86N, 1042N, pfmdr1 copies: 1) | 1.54 | 1.64 | 5.69 | 1.72 | 0.173 µg/mL | 0.00955 µg/mL | 0.000308 µg/mL | 0.0244 µg/mL
3 | Plasmodium falciparum isolate 210 (pfmdr1 allele: 86N, 1042N, pfmdr1 copies: 2) | 4.14 | 3.82 | 2.82 | 1.5 | 0.195 µg/mL | 0.0137 µg/mL | 0.000324 µg/mL | 0.0116 µg/mL
4 | Plasmodium falciparum isolate 12 (pfmdr1 allele: 86N, 1042N, pfmdr1 copies: 1) | 4.01 | 2.43 | 6.28 | 2.95 | 0.279 µg/mL | 0.0124 µg/mL | 0.00131 µg/mL | 0.0404 µg/mL
5 | Plasmodium falciparum isolate 305 (pfmdr1 allele: 86N, 1042N, pfmdr1 copies: 1) | 4.62 | 2.2 | 2.36 | 1.85 | 0.234 µg/mL | 0.00218 µg/mL | 0.00029 µg/mL | 0.00658 µg/mL
6 | Plasmodium falciparum isolate 267 (pfmdr1 allele: 86N, 1042N, pfmdr1 copies: 1) | 4.75 | 1.36 | 5.66 | 2.8 | 0.251 µg/mL | 0.007 µg/mL | 0.000753 µg/mL | 0.0314 µg/mL
7 | Plasmodium falciparum isolate 381 (pfmdr1 allele: 86N, 1042N, pfmdr1 copies: 1) | 6.05 | 2.52 | 2.47 | 1.68 | 0.299 µg/mL | 0.00934 µg/mL | 0.000542 µg/mL | 0.00413 µg/mL
8 | Plasmodium falciparum isolate 366 (pfmdr1 allele: 86N, 1042N, pfmdr1 copies: 1) | 3.25 | 1.94 | 4.9 | 3.06 | 0.0727 µg/mL | 0.00926 µg/mL | 0.000185 µg/mL | 0.00561 µg/mL
9 | Plasmodium falciparum isolate 254 (pfmdr1 allele: 86N, 1042N, pfmdr1 copies: 2) | 2.59 | 3.14 | 10 | 3.71 | 0.133 µg/mL | 0.0701 µg/mL | 0.000809 µg/mL | 0.103 µg/mL
10 | Plasmodium falciparum isolate 392 (pfmdr1 allele: 86N, 1042N, pfmdr1 copies: 1) | 5.18 | 1.3 | 3.52 | 1.53 | 0.0728 µg/mL | 0.00449 µg/mL | 0.000259 µg/mL | 0.0044 µg/mL
11 | Plasmodium falciparum isolate 221 (pfmdr1 allele: 86N, 1042N, pfmdr1 copies: 1) | 3.76 | 9.98 | 8.4 | 3.39 | 0.125 µg/mL | 0.129 µg/mL | 0.00403 µg/mL | 0.0542 µg/mL
12 | Plasmodium falciparum isolate 276 (pfmdr1 allele: 86Y, pfmdr1 copies: 1) | 3.84 | 1.63 | 4.21 | 2.81 | 0.147 µg/mL | 0.0074 µg/mL | 0.000344 µg/mL | 0.00511 µg/mL
13 | Plasmodium falciparum isolate 143 (pfmdr1 allele: 86N, 1042N, pfmdr1 copies: 3) | 5.87 | 3.1 | 5.31 | 3.37 | 0.211 µg/mL | 0.0166 µg/mL | 0.00105 µg/mL | 0.0348 µg/mL
14 | Plasmodium falciparum isolate 286 (pfmdr1 allele: 86N, 1042N, pfmdr1 copies: 1) | 4.18 | 2.59 | 3.12 | 2.47 | 0.225 µg/mL | 0.0556 µg/mL | 0.00291 µg/mL | 0.0359 µg/mL
15 | Plasmodium falciparum isolate 328 (pfmdr1 allele: 86N, 1042N, pfmdr1 copies: 1) | 3.93 | 2.59 | 7.74 | 3.31 | 0.0574 µg/mL | 0.0187 µg/mL | 0.00116 µg/mL | 0.0207 µg/mL
16 | Plasmodium falciparum isolate 54 (pfmdr1 allele: 86N, 1042N, pfmdr1 copies: 1) | 3.96 | 1.36 | 3.64 | 1.1 | 0.139 µg/mL | 0.0116 µg/mL | 0.00366 µg/mL | 0.0381 µg/mL
17 | Plasmodium falciparum isolate 454 (pfmdr1 allele: 86N, 1042N, pfmdr1 copies: 1) | 5.75 | 10 | 9.96 | 2.51 | 0.0539 µg/mL | 0.0519 µg/mL | 0.00165 µg/mL | 0.00817 µg/mL
